62 molecules from the supplement of paper PMC9446081 can be followed below.

Structures are written as SMILES. Out of some 39,000 compounds screened, about 220 (0.56%) showed activity. The list shows a part of the results.
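Also: static incubation at 37 °C against the wild-type strain, values averaged over two biological replicates.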

In this test the test system is Escherichia coli K-12 BW25113. The experiment in a line: relative growth (OD600 normalised to plate interquartile mean) (fraction); higher = less growth inhibition, active = 0.2 or less. The following applies: 50 µM; LB; incubation time: overnight (16-24 h).
Take `C[C@H](CO)N1C[C@H](C)[C@H](CN(C)Cc2ccc(C(F)(F)F)cc2)Oc2c(NC(=O)c3nc4ccccc4s3)cccc2C1=O`: the relative growth was inactive: 1.04.

As for `CCS(=O)(=O)NCC[C@H]1CC[C@H](NS(=O)(=O)c2cccc(F)c2)[C@H](CO)O1`, the relative growth was inactive: 1.01.

On to `Cc1ccc(S(=O)(=O)N(C)C[C@@H]2Oc3ncc(C#Cc4ccc(F)cc4)cc3C(=O)N([C@H](C)CO)C[C@@H]2C)cc1`, for which the relative growth is inactive: 1.01.

As for `C=C(C)[C@]1(O)OC(=O)C=C1OC`, the relative growth is inactive: 1.01.

With `NCC(=O)Nc1ccc(Br)cc1`, the relative growth was inactive: 0.673.

As to `O=C(N[C@@H](c1ccc(F)cc1)c1ccc2ccccc2n1)C1CCN(CCOc2ccc(F)cc2)CC1`, the relative growth was inactive: 0.973.

On to `CCn1cc(C(=O)O)c(=O)c2cc(F)c(N3CCN(C)CC3)cc21.CS(=O)(=O)O`, for which the relative growth was active: 0.0455.

As to `Cc1noc(C)c1S(=O)(=O)Nc1ccc2c(c1)C(=O)N([C@H](C)CO)C[C@@H](C)[C@@H](CN(C)S(C)(=O)=O)OCCCC[C@H](C)O2`, the relative growth was inactive: 1.01.

As for `Cl.N#Cc1ccc2[nH]cc(CCCCN3CCN(c4ccc5oc(C(N)=O)cc5c4)CC3)c2c1`, the relative growth was inactive: 0.875.

For the molecule `Cc1onc(-c2ccccc2)c1C(=O)NC1C(=O)N2C1SC(C)(C)C2C(=O)[O-].[Na+]` (configuration not stated), the relative growth was inactive: 1.1.

For `C[C@H](CO)N1C[C@H](C)[C@H](CN(C)C(=O)Nc2ccc(C(F)(F)F)cc2)Oc2c(NS(=O)(=O)c3ccc(F)cc3)cccc2C1=O`, the relative growth is inactive: 0.994.

As for `C[C@@H]1CN([C@H](C)CO)C(=O)Cc2cc(NC(=O)Nc3ccc4c(c3)OCO4)ccc2O[C@H]1CN(C)C(=O)Nc1cccc2ccccc12`, the relative growth was inactive: 1.02.

For `C[C@@H]1CN([C@H](C)CO)C(=O)c2cc(NC(=O)Nc3cccc4ccccc34)ccc2O[C@@H](C)CCCCO[C@@H]1CN(C)C(=O)Cc1ccccc1`, the relative growth was inactive: 1.01.

With `Cc1noc(C)c1S(=O)(=O)N(C)C[C@H]1Oc2ccc(NC(=O)NC3CCCCC3)cc2C(=O)N([C@H](C)CO)C[C@H]1C`, the relative growth was inactive: 0.986.

With `CN1CCN(C(=O)C[C@@H]2CC[C@@H]3[C@@H](COc4ccc(NC(=O)c5cccs5)cc4C(=O)N3C)O2)CC1`, the relative growth is inactive: 0.988.

Take `C[C@H]1CN([C@@H](C)CO)C(=O)c2cccc(NC(=O)Nc3ccccc3)c2O[C@@H]1CN(C)Cc1ccc(C(F)(F)F)cc1`: the relative growth was inactive: 0.821.

With `COc1cccc(NC(=O)N(C)C[C@H]2Oc3cc(C#CC4(O)CCCC4)ccc3S(=O)(=O)N([C@H](C)CO)C[C@H]2C)c1`, the relative growth is inactive: 1.

For `CC(C)CNc1nc(=O)cn[nH]1`, the relative growth is inactive: 1.01.

Consider `COc1cc2c(cc1OC)CN(CCc1ccc(NC(=O)c3cccc4c(=O)c5cccc(OC)c5[nH]c34)cc1)CC2`, for which the relative growth is inactive: 0.945.

Turning to `CC(C)n1c(C=CC(O)CC(O)CC(=O)[O-])c(-c2ccc(F)cc2)c2ccccc21.[Na+]` (configuration not stated), the relative growth is inactive: 1.19.

Take `C[C@@H]1CN([C@@H](C)CO)C(=O)CCCn2cc(nn2)CO[C@H]1CN(C)C(=O)Nc1ccc2c(c1)OCO2`: the relative growth is inactive: 1.

Consider `CCCNC(=O)N1C[C@]2(CN(C2)S(=O)(=O)c2ccccc2)c2c(n(c3cc(ccc23)OC)C)[C@@H]1CO`, for which the relative growth was inactive: 0.999.

Take `C[C@H]1CCCCO[C@H](CN(C)Cc2ccc(Cl)c(Cl)c2)[C@@H](C)CN([C@@H](C)CO)C(=O)c2cc(NC(=O)Nc3ccc(C(F)(F)F)cc3)ccc2O1`: the relative growth is inactive: 1.

As for `C[C@H]1CN([C@@H](C)CO)C(=O)c2cc(N(C)C)ccc2O[C@@H]1CN(C)S(C)(=O)=O`, the relative growth was inactive: 0.98.

Consider `N[C@@H](CCc1ccccc1Cl)c1ccc2c(c1)OCCO2`, for which the relative growth is inactive: 0.957.

`C[C@H]1CN([C@@H](C)CO)C(=O)c2cc(NC(=O)Nc3ccc4c(c3)OCO4)ccc2O[C@@H]1CN(C)Cc1ccc(Cl)c(Cl)c1`: the relative growth was inactive: 0.985.

For the molecule `C=CC(C)(O)CCC=C(C)C` (configuration not stated), the relative growth was inactive: 1.07.

As to `C[C@H]1CN([C@@H](C)CO)C(=O)c2cc(NS(=O)(=O)c3cccs3)ccc2O[C@@H]1CN(C)Cc1ccc(Cl)c(Cl)c1`, the relative growth is inactive: 0.995.

Consider `CC(=O)N[C@H]1[C@H](O[C@@H]2[C@@H](O)[C@H](C)O[C@@H](Oc3ccc4c(=O)c(-c5ccc(O)cc5)coc4c3)[C@@H]2O)O[C@H](CO)[C@@H](O[C@@H]2O[C@@H](C)[C@H](O)[C@@H](O)[C@H]2O)[C@@H]1O`, for which the relative growth is inactive: 0.994.

Regarding `C[C@@H]1CN([C@@H](C)CO)C(=O)c2cc(NC(=O)Cc3ccccc3)ccc2O[C@@H](C)CCCCO[C@H]1CN(C)Cc1ccc(C(=O)O)cc1`, the relative growth is inactive: 0.978.

As to `COc1ccc2c3c(n(c2c1)C)[C@@H](CO)N(C[C@]13CN(C1)C(=O)C)C(=O)CN1CCOCC1`, the relative growth was inactive: 0.995.

Regarding `O=C(C[C@@H]1CC[C@@H]2[C@H](COC[C@@H](O)CN2S(=O)(=O)c2ccccc2)O1)NCc1ccc2c(c1)OCO2`, the relative growth is inactive: 1.03.

With `C(=C\[C@@H]1Nc2ccccc2-c2nc3ccccc3n21)/c1ccccc1`, the relative growth was inactive: 0.985.

`CC(C)NC(=O)N(C)C[C@H]1Oc2ccc(NC(=O)Cc3ccccc3)cc2C(=O)N([C@@H](C)CO)C[C@H]1C`: the relative growth is inactive: 0.993.

Regarding `C[C@@H]1CN([C@H](C)CO)S(=O)(=O)c2ccc(-c3cccc(C#N)c3)cc2O[C@H]1CN(C)C(=O)c1ccncc1`, the relative growth was inactive: 1.05.

As for `COCCOC(=O)N1C(=O)[C@@]2(c3cc(C#CCNC(N)=O)ccc31)[C@H](C(=O)N1CCCCCCC1)[C@H]1C(=O)O[C@H](c3ccccc3)[C@H](c3ccccc3)N1[C@@H]2c1ccc(O)cc1`, the relative growth was inactive: 1.05.

For `C[C@@H]1CN([C@@H](C)CO)C(=O)c2cc(NC(=O)Nc3ccc4c(c3)OCO4)ccc2O[C@@H](C)CCCCO[C@H]1CN(C)C(=O)c1ccccc1`, the relative growth is inactive: 1.01.

Turning to `CS(=O)(=O)N1CCC2(CC1)OCCO2`, the relative growth was inactive: 1.08.

As to `C[C@@H]1CN([C@@H](C)CO)C(=O)Cc2cc(NS(=O)(=O)c3cn(C)cn3)ccc2O[C@H]1CN(C)C(=O)Nc1ccc2c(c1)OCO2`, the relative growth was inactive: 0.988.

Turning to `COC(=O)[C@@H](C)N(C#N)c1nc(C)nc(C)n1`, the relative growth was inactive: 1.01.

Turning to `C[C@@H]1CCCCO[C@@H](CN(C)C(=O)Nc2cccc3ccccc23)[C@H](C)CN([C@@H](C)CO)C(=O)c2cc(NS(=O)(=O)c3ccc(F)cc3)ccc2O1`, the relative growth is inactive: 1.02.

Take `NC(=O)CC[C@H](N)C(=O)O`: the relative growth was inactive: 0.974.

On to `O=C(/C=C/c1ccccc1)c1ccc(O[C@@H]2O[C@H](CO)[C@@H](O)[C@H](O)[C@H]2O)cc1O`, for which the relative growth is inactive: 0.999.

On to `C[C@@H]1CN([C@@H](C)CO)C(=O)c2cc(NC(=O)Cc3ccccc3)ccc2O[C@@H](C)CCCCO[C@H]1CN(C)Cc1ccncc1`, for which the relative growth was inactive: 0.994.

Turning to `C[C@H](CO)N1C[C@H](C)[C@@H](CN(C)C(=O)Nc2cccc3ccccc23)Oc2ccc(NC(=O)CCC(F)(F)F)cc2C1=O`, the relative growth was inactive: 1.

In the case of `C[C@H]1CCCCO[C@H](CN(C)Cc2ccc(Cl)c(Cl)c2)[C@@H](C)CN([C@@H](C)CO)C(=O)c2cc(NC(=O)Nc3cccc4ccccc34)ccc2O1`, the relative growth was inactive: 1.01.

Consider `C[C@@H]1CN([C@@H](C)CO)S(=O)(=O)c2ccc(C#CCC3CCCC3)cc2O[C@H]1CN(C)C(=O)CN(C)C`, for which the relative growth was inactive: 0.968.

Turning to `C[C@@H]1CN([C@H](C)CO)C(=O)c2cc(NC(=O)C3CCCCC3)ccc2O[C@@H](C)CCCCO[C@H]1CN(C)C(=O)CCC(F)(F)F`, the relative growth is inactive: 0.998.

Consider `C[C@@H]1CN([C@H](C)CO)C(=O)Cc2cc(NS(=O)(=O)c3ccc(F)cc3)ccc2O[C@@H]1CN(C)S(=O)(=O)c1ccccc1`, for which the relative growth was inactive: 0.989.

Regarding `Cc1c(C)c2c(c(C)c1O)CCC(C)(CCCC(C)CCCC(C)CCCC(C)C)O2` (stereo not drawn) [alpha-TOCHOPHEROL [4 mM]], the relative growth is inactive: 1.11.

Consider `CNC[C@H]1OCCCC[C@@H](C)Oc2ccc(NC(=O)CCCN(C)C)cc2C(=O)N([C@H](C)CO)C[C@@H]1C`, for which the relative growth was inactive: 0.986.

Turning to `CC(C)N1C[C@@H](CN(C)CCc2ccc(Cl)c(Cl)c2)Oc2c(NC(=O)c3ccncc3)cccc2C1=O`, the relative growth is inactive: 1.01.

On to `C[C@H]1CCCCO[C@@H](CN(C)S(=O)(=O)c2ccc(Cl)cc2)[C@@H](C)CN([C@@H](C)CO)C(=O)c2cc(NC(=O)CCC(F)(F)F)ccc2O1`, for which the relative growth is inactive: 1.

On to `C[C@H]1CN([C@@H](C)CO)C(=O)c2cc(NC(=O)CCC(F)(F)F)ccc2O[C@@H]1CN(C)S(=O)(=O)c1cn(C)cn1`, for which the relative growth is inactive: 1.

`COc1ccc(S(=O)(=O)N[C@@H]2C=C[C@H](CC(=O)N3CCC(Cc4ccccc4)CC3)O[C@@H]2CO)cc1`: the relative growth was inactive: 1.03.

`CN(C)CC(=O)N[C@@H]1C=C[C@@H](CC(=O)O)O[C@@H]1CO`: the relative growth was inactive: 0.986.

For `C[C@H]1CCCCO[C@@H](CN(C)CC2CCCCC2)[C@@H](C)CN([C@@H](C)CO)C(=O)c2cc(NC(=O)Nc3ccc(C(F)(F)F)cc3)ccc2O1`, the relative growth was inactive: 1.01.

Regarding `CCCCCCCCCCC/C=C\C/C=C\CCCC(=O)O`, the relative growth was inactive: 0.895.

`C[C@@H]1CCCCO[C@H](CN(C)S(=O)(=O)c2ccc(Cl)cc2)[C@H](C)CN([C@H](C)CO)C(=O)c2cc(NC(=O)C3CCCCC3)ccc2O1`: the relative growth was inactive: 1.03.

Consider `COCC(=O)Nc1ccc2c(c1)C(=O)N(C)C[C@H](OC)[C@@H](C)CN(C(=O)c1ccccc1F)[C@H](C)CO2`, for which the relative growth was inactive: 1.01.

With `O=C(NCCCN1CCOCC1)[C@@H]1[C@@H](CO)[C@@H]2Cn3c(ccc(C4=CCCCC4)c3=O)[C@H]1N2`, the relative growth was inactive: 0.997.

Regarding `C[C@H](CO)N1C[C@H](C)[C@H](CN(C)S(=O)(=O)c2cccs2)Oc2ccc(NC(=O)C3CC3)cc2CC1=O`, the relative growth is inactive: 0.984.
